Residue numbers refer to the chain shown, from its start. This is one part of the list.
T1: RBFOX1 RRM RbFoxmut (Fox-RRM*) (Homo sapiens, UniProt Q9NWB1 109-208, R118D;E147R;N151S;E152T)
T1 sequence: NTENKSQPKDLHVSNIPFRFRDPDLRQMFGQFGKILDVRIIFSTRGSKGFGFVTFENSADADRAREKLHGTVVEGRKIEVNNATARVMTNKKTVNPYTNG

B1: AAGAGAC (DNA:RNA)
RNA: GGGAGACCGGAAUUCAGAUUGUCCAAGAGACUUAAAUCCCGUCGUAGCCACCA
DNA 1: CAATCTGAATTCCGGTCTCCC
DNA 2: TGGTGGCTACGACGGGATT
B2: UUUCGAC (DNA:RNA)
RNA: B1 RNA with A25U, A26U, G27U, A28C
DNA 1: CAATCTGAATTCCGGTCTCCC
DNA 2: TGGTGGCTACGACGGGATT
B3: CUGUAAG (DNA:RNA)
RNA: B1 RNA with A25C, A26U, A28U, G29A, C31G
DNA 1: CAATCTGAATTCCGGTCTCCC
DNA 2: TGGTGGCTACGACGGGATT
B4: ACUGUUA (DNA:RNA)
RNA: B1 RNA with A26C, G27U, A28G, G29U, A30U, C31A
DNA 1: CAATCTGAATTCCGGTCTCCC
DNA 2: TGGTGGCTACGACGGGATT
B5: AACCAAG (DNA:RNA)
RNA: B1 RNA with G27C, A28C, G29A, C31G
DNA 1: CAATCTGAATTCCGGTCTCCC
DNA 2: TGGTGGCTACGACGGGATT
B6: GUAACCG (DNA:RNA)
RNA: B1 RNA with A25G, A26U, G27A, G29C, A30C, C31G
DNA 1: CAATCTGAATTCCGGTCTCCC
DNA 2: TGGTGGCTACGACGGGATT
B7: GGUAAUC (DNA:RNA)
RNA: B1 RNA with A25G, A26G, G27U, G29A, A30U
DNA 1: CAATCTGAATTCCGGTCTCCC
DNA 2: TGGTGGCTACGACGGGATT
B8: GUUGGCG (DNA:RNA)
RNA: B1 RNA with A25G, A26U, G27U, A28G, A30C, C31G
DNA 1: CAATCTGAATTCCGGTCTCCC
DNA 2: TGGTGGCTACGACGGGATT
B9: ACCUGUG (DNA:RNA)
RNA: B1 RNA with A26C, G27C, A28U, A30U, C31G
DNA 1: CAATCTGAATTCCGGTCTCCC
DNA 2: TGGTGGCTACGACGGGATT

The binders below were run against T1, RBFOX1 RRM RbFoxmut (Fox-RRM*) (assay: EMSA; HiTS-Eq, 1 nM pool, 10 min; buffer printed only for the single-RNA assays: 10 mM Tris pH 7.5, 150 mM NaCl, 3.4 mM EDTA, 0.001% NP-40, 30 C). Conditions: tags: His6 N-terminal (pET28a); label: 5' 32P.
Outline: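 Purified wild-type or mutant RbFox RRM at increasing concentrations was equilibrated with 1 nM of 5′-radiolabelled RNA carrying 7 randomized nucleotides for 10 min in 50 µL. Unbound RNA was separated by 8% native PAGE and sequenced. Relative association constants came from read-count changes of each RNA species compared with the control reaction, normalised to the cognate motif.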
With B1 the binding signal was 0.0822 KA relative to UGCAUGU. With B2 the binding signal was 0.0471 KA relative to UGCAUGU. In the case of B3, the binding signal is reported as 0.115 KA relative to UGCAUGU. For B4, the binding signal was 0.133 KA relative to UGCAUGU. B5 was tested, and the binding signal was 0.0713 KA relative to UGCAUGU. B6 was tested, and the binding signal was 0.114 KA relative to UGCAUGU. With B7 the binding signal was 0.149 KA relative to UGCAUGU. With B8 the binding signal was 0.136 KA relative to UGCAUGU. B9 was tested, and the binding signal was 0.139 KA relative to UGCAUGU.

From PMC9911399, “Two distinct binding modes provide the RNA-binding protein RbFox with extraordinary sequence specificity”
